Results published in paper PMC4336329 (PLoS ONE, 2015).
The whole screen tested about 310,000 compounds, of which about 14,000 (4.5%) showed an effect of 50% or more. Effects have a minus sign here. The list shows a part of the results.

What follows are molecules tested against human ether-à-go-go-related gene (hERG) potassium channel (human, UniProt Q12809) (assay: primary screen, population patch clamp on CHO cells stably expressing hERG).
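Also: peak tail current of the secondary pulse compared with the same well before compound.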

human ether-à-go-go-related gene (hERG) potassium channel, sequence (Q12809 whole entry, looked up): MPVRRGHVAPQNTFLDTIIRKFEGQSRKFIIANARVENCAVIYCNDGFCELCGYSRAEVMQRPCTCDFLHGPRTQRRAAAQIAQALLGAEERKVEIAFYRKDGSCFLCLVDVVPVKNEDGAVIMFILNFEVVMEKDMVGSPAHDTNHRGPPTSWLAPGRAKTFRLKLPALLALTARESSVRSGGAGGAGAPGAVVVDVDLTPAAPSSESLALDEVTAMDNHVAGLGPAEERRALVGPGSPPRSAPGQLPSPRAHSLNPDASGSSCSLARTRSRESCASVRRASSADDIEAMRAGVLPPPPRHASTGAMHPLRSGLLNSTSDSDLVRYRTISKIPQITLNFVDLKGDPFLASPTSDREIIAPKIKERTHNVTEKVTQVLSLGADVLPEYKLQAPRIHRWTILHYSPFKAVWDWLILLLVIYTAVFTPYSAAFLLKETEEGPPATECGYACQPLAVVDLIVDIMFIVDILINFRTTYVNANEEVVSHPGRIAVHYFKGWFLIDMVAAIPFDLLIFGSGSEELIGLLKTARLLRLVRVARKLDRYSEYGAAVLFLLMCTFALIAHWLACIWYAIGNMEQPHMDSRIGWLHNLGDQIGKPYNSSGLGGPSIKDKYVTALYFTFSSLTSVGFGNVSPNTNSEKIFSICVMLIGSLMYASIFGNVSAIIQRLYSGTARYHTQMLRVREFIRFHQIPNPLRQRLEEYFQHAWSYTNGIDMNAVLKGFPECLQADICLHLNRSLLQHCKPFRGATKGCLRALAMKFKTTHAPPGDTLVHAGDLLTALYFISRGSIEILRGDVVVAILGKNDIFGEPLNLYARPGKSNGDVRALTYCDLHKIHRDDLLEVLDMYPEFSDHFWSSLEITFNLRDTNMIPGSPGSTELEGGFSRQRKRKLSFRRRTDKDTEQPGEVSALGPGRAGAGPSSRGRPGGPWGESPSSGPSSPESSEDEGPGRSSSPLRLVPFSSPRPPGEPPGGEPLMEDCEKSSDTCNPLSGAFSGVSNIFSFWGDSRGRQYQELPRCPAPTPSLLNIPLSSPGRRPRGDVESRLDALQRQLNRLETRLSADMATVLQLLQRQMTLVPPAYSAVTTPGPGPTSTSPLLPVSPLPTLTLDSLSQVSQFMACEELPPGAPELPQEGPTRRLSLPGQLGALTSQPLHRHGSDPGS

Row | SMILES | hERG current change (%, negative = inhibition) at 10uM [%]
1 | CCOc1ccc(NC(=O)C/C(C)=N/NC(=O)Cc2ccc(Cl)cc2)cc1 | 5.53
2 | COc1ccc(-n2c(=O)[nH]cc(C(=O)N3CCc4ccccc43)c2=O)cc1 | 16.2
3 | O=C(NC(=O)N1CCN(c2ccc([N+](=O)[O-])cn2)CC1)c1c(Cl)cccc1Cl | 8.86
4 | COc1ccccc1OCC(=O)Nc1ccccc1C(=O)NCc1cccnc1 | -26.5
5 | Cc1cccc(C)c1NC(=O)CN(C)C(C)C(=O)NCC(=O)Nc1ccc(F)c(F)c1F (stereo not shown) | -1.83
6 | CCOC(=O)COc1ccc(C)cc1-c1ccno1 | -19.9
7 | COc1cc(C(=O)OCC(=O)c2ccccc2)cc2c1OCCO2 | 5.28
8 | COc1ccc(OCCOCCN2CCN(C)CC2)cc1.O=C(O)C(=O)O | -6.29
9 | CCCCCn1c(=O)c(C(=O)NCc2ccco2)c(O)c2ccccc21 | 15.2
10 | CCOc1ccc(C(=O)NCc2ccccc2)cc1Br | -23.6
11 | CC1Cc2nc(SCC(=O)NCC3CCCO3)n(-c3ccc(F)cc3)c(=O)c2S1 (stereo not shown) | -14.5
12 | O=S(=O)(N1CCOCC1)n1c(Cc2ccccc2)nc2ccccc21 | -28.9
13 | CCC(=O)NC(NC(=S)Nc1ccccc1Br)C(Cl)(Cl)Cl (stereo not shown) | 18.2
14 | O=c1c(-c2ccc(F)cc2)coc2c3c(ccc12)OCCO3 | -2.89
15 | CCCNC(=O)NC1CCCCCCC1 | 14.1
16 | CC(C)(O)c1cc2ccc(C#Cc3ccsc3)cc2c(=O)o1 | -4.22
17 | Cc1cc(C(=O)NC(CC(C)C)C(=O)O)cc(C)c1[N+](=O)[O-] (stereo not shown) | 12.3
18 | COc1ccc2c(c1)sc1nc(=O)ccn12 | 3.21
19 | COc1ccc(CNC(=O)C2CCCN(S(=O)(=O)c3ccc(Br)s3)C2)cc1 (stereo not shown) | 6.42
20 | O=C(CN1CCN(S(=O)(=O)c2ccccc2)CC1)NCCc1ccccc1 | 11.1

Row | SMILES | hERG current change (%, negative = inhibition) at 10uM [%]
21 | CCNC(=O)NNC(=O)C1CC(c2cccs2)=NO1 (stereo not shown) | 17.3
22 | CCOC(=O)C(=O)N1c2ccccc2C(N(C(=O)C(=O)OCC)c2ccccc2)CC1C (stereo not shown) | -1.14
23 | CNC(=O)CSc1nnc(-c2ccco2)n1-c1cc(C)ccc1C | -2.95
24 | O=C(CN(C(=O)CCC(=O)Nc1ccccn1)c1ccc2c(c1)OCCO2)NCCc1ccccc1 | 2.29
25 | CCCN(CCC)c1ccc(CC(=O)NC(C)Cc2ccccc2)cc1 (stereo not shown) | -10
26 | COc1ccc(C(=O)c2c(C(F)(F)F)oc3c2C(=O)c2ccccc2C3=O)cc1 | 1.85
27 | CCOC(=O)NC(Nc1cc(C)ccn1)(C(F)(F)F)C(F)(F)F | 13.6
28 | Cc1cccc(Oc2nccc(C(F)(F)F)c2C(=O)Nc2ccc(F)cc2F)c1 | 4.35
29 | CC(C)NC(=O)CSc1nc2[nH]ncc2c(=O)[nH]1 | 15.6
30 | COC(=O)Cc1ccc(NC(=S)NC(C)(C)C)cc1 | 34.3
31 | CN1C(=O)CC(Nc2cccc3cccc(N)c23)C1=O (stereo not shown) | 0.686
32 | CC(=O)c1cccc(NC(=O)NNC(=O)c2ccc(-c3ccccc3)cc2)c1 | 10.7
33 | CC(=O)N1CCOc2ccc(S(=O)(=O)Nc3cccc(C)c3)cc21 | 0.427
34 | CCN1CCN(CCCNC(=O)c2ccc3c(c2)NC(=O)c2ccccc2S3)CC1 | -2.73
35 | CCOC(=O)C(Sc1n[nH]c(N)n1)c1ccccc1 (stereo not shown) | 11.3
36 | Nc1ccnn1Cc1cccs1 | -0.225
37 | Cc1c(-c2ccccc2)sc2nc[nH]c(=S)c12 | 11.2
38 | C=CCNc1nc(N2CCOCC2)c(C#N)c2c1CN(C)CC2 | -14.1
39 | O=C(NCCOc1ccccc1Cl)C(=O)c1c[nH]c2ccccc12 | 13.9
40 | O=C(N/N=C/c1c(F)c(F)c(F)c(F)c1F)c1cccc(S(=O)(=O)N2CCOCC2)c1 | 22.1

Row | SMILES | hERG current change (%, negative = inhibition) at 10uM [%]
41 | O=C(NC1CCCCC1)c1c2c(nc3ccccc13)CCC2 | 20.9
42 | O=C(NCCc1c[nH]c2ccccc12)C(=O)NCC1CCCO1 (stereo not shown) | 31
43 | Cc1ccc(NC(=S)N2CCCC2)cc1C | 21.2
44 | CC(C)(C)OC(=O)NCc1ccc(CNC(=O)c2nc[nH]c2C(=O)N2CCN(C(=O)OC(C)(C)C)CC2)cc1 | -9.67
45 | COc1ccc(C(=O)CSC#N)cc1OC | 13.3
46 | O=C(NN=C1c2ccccc2-c2ccccc21)c1cccc(Br)c1 | 26.9
47 | COc1cccc(CC2(CO)CCN(Cc3ccc(NC(C)=O)cc3)CC2)c1 | -50.7
48 | Cc1ccc2nc(C)cc(Nc3ccc4c(c3)OCCO4)c2c1.Cl | -58.2
49 | O=C(CN(c1cccc(C(F)(F)F)c1)S(=O)(=O)c1ccc(Cl)c([N+](=O)[O-])c1)NCc1ccc(F)cc1 | 8.84
50 | C[CH2][Hg][S]c1ccccc1C(=O)[O-].[Na+] | 13.8
51 | O=S(=O)(Nc1ccc(Cl)nn1)c1ccccc1 | 12.7
52 | O=C(CSC1=NCCN1)Nc1ccccc1[N+](=O)[O-] | 11.2
53 | CC1(C)CC(=O)C2=C(C1)OC(/N=C/N1CCCC1)=C(C#N)C2c1ccccc1 (stereo not shown) | -0.0862
54 | COC(=O)c1cc(NC(=O)C2COc3ccccc3O2)cc(C(=O)OC)c1 (stereo not shown) | -29.6
55 | CCOC(=O)C1CCN(C(=O)c2ccccc2NS(=O)(=O)c2cc(C)ccc2C)CC1 | 12.4
56 | CC(C)c1ccc(OCC(=O)NCCO)cc1 | 27.6
57 | O=C(O)c1c(-c2ccccc2)c2oc3ccccc3c2[nH]c1=O | -0.736
58 | CCOC(=O)CNC(=O)COc1coc(CN2CCN(c3ccccc3F)CC2)cc1=O | 12.5
